# Test results published in the supplement of paper PMC8728848.
# Some of the results follow.
# Key:
# Experiment in all cases: glycan array binding signal (z-score within array); higher = stronger binding
# Details in all cases: glycan notation: IUPAC condensed, linker removed
# [1] = molecular target: GlcNAc(b1-6)Gal(b1-4)GlcNAc
# Outline: (§1)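 Glycan array binding is given as a within-array Z-score, which can be read as non-binding when negative. The arrays, 3228 of them, came from the Consortium for Functional Glycomics database and were retained only where the protein sequence was available. Z-scores were averaged across arrays of the same protein sequence at different concentrations or buffers and across linkers.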
# GlcNAc(b1-6)GalNAc = molecular target: GlcNAc(b1-6)GalNAc
# Outline: as §1
# GlcNAc3Prop(b1-4)GlcNAc = molecular target: GlcNAc3Prop(b1-4)GlcNAc
# Outline: as §1
# Kdn(a2-3)Gal(b1-3)GlcNAc = molecular target: Kdn(a2-3)Gal(b1-3)GlcNAc
# Outline: as §1
# Kdn(a2-3)Gal(b1-4)GlcNAc = molecular target: Kdn(a2-3)Gal(b1-4)GlcNAc
# Outline: as §1
# [2] = molecular target: Man(a1-2)Man(a1-2)Man(a1-3)Man
# Outline: as §1
# [3] = molecular target: Man(a1-2)Man(a1-2)Man(a1-6)[Man(a1-3)]Man
# Outline: as §1
# Man(a1-2)Man(a1-3)Man = molecular target: Man(a1-2)Man(a1-3)Man
# Outline: as §1
# [4] = molecular target: Man(a1-2)Man(a1-3)[Man(a1-2)Man(a1-6)]Man
# Outline: as §1
# [5] = molecular target: Man(a1-2)Man(a1-3)[Man(a1-2)Man(a1-6)]Man(a1-6)[Man(a1-2)Man(a1-2)Man(a1-3)]Man
# Outline: as §1
# [6] = molecular target: Man(a1-2)Man(a1-3)[Man(a1-2)Man(a1-6)]Man(a1-6)[Man(a1-2)Man(a1-2)Man(a1-3)]Man(b1-4)GlcNAc(b1-4)GlcNAc
# Outline: as §1
# [7] = molecular target: Man(a1-2)Man(a1-3)[Man(a1-6)]Man(a1-6)[Man(a1-2)Man(a1-3)]Man(b1-4)GlcNAc(b1-4)GlcNAc
# Outline: as §1
# [8] = molecular target: Man(a1-2)Man(a1-6)[Man(a1-3)]Man(a1-6)[Man(a1-2)Man(a1-2)Man(a1-3)]Man
# Outline: as §1
# [9] = molecular target: Man(a1-2)Man(a1-6)[Man(a1-3)]Man(a1-6)[Man(a1-2)Man(a1-2)Man(a1-3)]Man(b1-4)GlcNAc(b1-4)GlcNAc
# Outline: as §1
# Man(a1-3)[Man(a1-6)]Man = molecular target: Man(a1-3)[Man(a1-6)]Man
# Outline: as §1
# [10] = molecular target: Man(a1-3)[Man(a1-6)]Man(a1-6)[Man(a1-2)Man(a1-3)]Man(b1-4)GlcNAc(b1-4)GlcNAc
# Outline: as §1
# [11] = molecular target: Man(a1-3)[Man(a1-6)]Man(a1-6)[Man(a1-3)]Man
# Outline: as §1
# [12] = molecular target: Man(a1-3)[Man(a1-6)]Man(a1-6)[Man(a1-3)]Man(b1-4)GlcNAc(b1-4)GlcNAc
# Outline: as §1
# [13] = molecular target: Man(a1-3)[Man(a1-6)]Man(b1-4)GlcNAc(b1-4)GlcNAc
# Outline: as §1
# Man(a1-6)Man = molecular target: Man(a1-6)Man
# Outline: as §1
# Man(b1-4)GlcNAc = molecular target: Man(b1-4)GlcNAc
# Outline: as §1
# Neu5Ac(a2-3)Gal = molecular target: Neu5Ac(a2-3)Gal
# Outline: as §1
# [14] = molecular target: Neu5Ac(a2-3)Gal(b1-3)GalNAc
# Outline: as §1
# [15] = molecular target: Neu5Ac(a2-3)Gal(b1-3)GalNAc(b1-3)Gal(a1-4)Gal(b1-4)Glc
# Outline: as §1
# [16] = molecular target: Neu5Ac(a2-3)Gal(b1-3)GalNAc(b1-3)Gal(b1-4)GlcNAc
# Outline: as §1
# [17] = molecular target: Neu5Ac(a2-3)Gal(b1-3)GalNAc(b1-4)[Neu5Ac(a2-3)]Gal(b1-4)Glc
# Outline: as §1
# [18] = molecular target: Neu5Ac(a2-3)Gal(b1-3)GalNAc6S
# Outline: as §1
# [19] = molecular target: Neu5Ac(a2-3)Gal(b1-3)GlcNAc
# Outline: as §1
# [20] = molecular target: Neu5Ac(a2-3)Gal(b1-3)GlcNAc(b1-3)Gal(b1-3)GlcNAc
# Outline: as §1
# [21] = molecular target: Neu5Ac(a2-3)Gal(b1-3)GlcNAc6S
# Outline: as §1
# [22] = molecular target: Neu5Ac(a2-3)Gal(b1-3)[Fuc(a1-4)]GlcNAc
# Outline: as §1
# [23] = molecular target: Neu5Ac(a2-3)Gal(b1-3)[Fuc(a1-4)]GlcNAc(b1-3)Gal(b1-4)[Fuc(a1-3)]GlcNAc
# Outline: as §1
# [24] = molecular target: Neu5Ac(a2-3)Gal(b1-3)[Neu5Ac(a2-3)Gal(b1-4)]GlcNAc
# Outline: as §1
# [25] = molecular target: Neu5Ac(a2-3)Gal(b1-3)[Neu5Ac(a2-6)]GalNAc
# Outline: as §1
# Neu5Ac(a2-3)Gal(b1-4)Glc = molecular target: Neu5Ac(a2-3)Gal(b1-4)Glc
# Outline: as §1
# [26] = molecular target: Neu5Ac(a2-3)Gal(b1-4)GlcNAc
# Outline: as §1
# [27] = molecular target: Neu5Ac(a2-3)Gal(b1-4)GlcNAc(b1-2)Man(a1-3)[GlcNAc(b1-2)Man(b1-4)GlcNAc(b1-2)Man(a1-6)]Man(b1-4)GlcNAc(b1-4)GlcNAc
# Outline: as §1
# [28] = molecular target: Neu5Ac(a2-3)Gal(b1-4)GlcNAc(b1-2)Man(a1-3)[Neu5Ac(a2-6)Gal(b1-4)GlcNAc(b1-2)Man(a1-6)]Man(b1-4)GlcNAc(b1-4)GlcNAc
# Outline: as §1
# [29] = molecular target: Neu5Ac(a2-3)Gal(b1-4)GlcNAc(b1-3)Gal(b1-3)GlcNAc
# Outline: as §1
# [30] = molecular target: Neu5Ac(a2-3)Gal(b1-4)GlcNAc(b1-3)Gal(b1-4)GlcNAc
# Outline: as §1
# [31] = molecular target: Neu5Ac(a2-3)Gal(b1-4)GlcNAc(b1-3)Gal(b1-4)GlcNAc(b1-3)Gal(b1-4)GlcNAc
# Outline: as §1
# [32] = molecular target: Neu5Ac(a2-3)Gal(b1-4)GlcNAc(b1-3)Gal(b1-4)[Fuc(a1-3)]GlcNAc
# Outline: as §1
# [33] = molecular target: Neu5Ac(a2-3)Gal(b1-4)GlcNAc(b1-6)[Gal(b1-3)]GalNAc
# Outline: as §1
# [34] = molecular target: Neu5Ac(a2-3)Gal(b1-4)GlcNAc(b1-6)[Neu5Ac(a2-3)Gal(b1-3)]GalNAc
# Outline: as §1
# [35] = molecular target: Neu5Ac(a2-3)Gal(b1-4)GlcNAc6S
# Outline: as §1
binder,measurement,setting,value
"Langerin CRD (Homo sapiens), Q9UJ71 (protein) QVVSQGWKYFKGNFYYFSLIPKTWYSAEQFCVSRNSHLTSVTSESEQEFLYKTAGGLIYWIGLTKAGMEGDWSWVDDTPFNKVQSVRFWIPGEPNNAGNNEHCGNIKAPSLQAWNDAPCDKTFLFICKRPYVPSEPSAWSHPQFEK",glycan array binding signal (z-score),[1],0.659
same,glycan array binding signal (z-score),GlcNAc(b1-6)GalNAc,1.27
same,glycan array binding signal (z-score),GlcNAc3Prop(b1-4)GlcNAc,-0.251
same,glycan array binding signal (z-score),Kdn(a2-3)Gal(b1-3)GlcNAc,-0.515
same,glycan array binding signal (z-score),Kdn(a2-3)Gal(b1-4)GlcNAc,-0.631
same,glycan array binding signal (z-score),[2],4.1
same,glycan array binding signal (z-score),[3],0.973
same,glycan array binding signal (z-score),Man(a1-2)Man(a1-3)Man,1.45
same,glycan array binding signal (z-score),[4],1.05
same,glycan array binding signal (z-score),[5],2.41
same,glycan array binding signal (z-score),[6],-0.352
same,glycan array binding signal (z-score),[7],0.646
same,glycan array binding signal (z-score),[8],1.86
same,glycan array binding signal (z-score),[9],0.337
same,glycan array binding signal (z-score),Man(a1-3)[Man(a1-6)]Man,1.31
same,glycan array binding signal (z-score),[10],0.569
same,glycan array binding signal (z-score),[11],1.07
same,glycan array binding signal (z-score),[12],-0.241
same,glycan array binding signal (z-score),[13],0.392
same,glycan array binding signal (z-score),Man(a1-6)Man,1.03
same,glycan array binding signal (z-score),Man(b1-4)GlcNAc,0.232
same,glycan array binding signal (z-score),Neu5Ac(a2-3)Gal,-0.625
same,glycan array binding signal (z-score),[14],-0.547
same,glycan array binding signal (z-score),[15],-0.588
same,glycan array binding signal (z-score),[16],-0.611
same,glycan array binding signal (z-score),[17],-0.648
same,glycan array binding signal (z-score),[18],-0.654
same,glycan array binding signal (z-score),[19],-0.432
same,glycan array binding signal (z-score),[20],-0.48
same,glycan array binding signal (z-score),[21],-0.591
same,glycan array binding signal (z-score),[22],0.059
same,glycan array binding signal (z-score),[23],-0.399
same,glycan array binding signal (z-score),[24],-0.595
same,glycan array binding signal (z-score),[25],-0.633
same,glycan array binding signal (z-score),Neu5Ac(a2-3)Gal(b1-4)Glc,-0.401
same,glycan array binding signal (z-score),[26],-0.606
same,glycan array binding signal (z-score),[27],-0.558
same,glycan array binding signal (z-score),[28],-0.647
same,glycan array binding signal (z-score),[29],-0.628
same,glycan array binding signal (z-score),[30],-0.418
same,glycan array binding signal (z-score),[31],-0.654
same,glycan array binding signal (z-score),[32],-0.68
same,glycan array binding signal (z-score),[33],-0.693
same,glycan array binding signal (z-score),[34],-0.598
same,glycan array binding signal (z-score),[35],-0.429
